# Results: publication PMC4336329 (PLoS ONE, 2015)
# The campaign covered roughly 310,000 compounds. About 14,000 (4.5%) showed an effect of 50% or more. The effect is printed as a negative number. Some of the results follow.
# Target: human ether-à-go-go-related gene (hERG) potassium channel (human, UniProt Q12809)
# Experiment: primary screen, population patch clamp on CHO cells stably expressing hERG
# 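Note: peak tail current of the secondary pulse compared with the same well before compound.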
# human ether-à-go-go-related gene (hERG) potassium channel, sequence (Q12809 whole entry, looked up): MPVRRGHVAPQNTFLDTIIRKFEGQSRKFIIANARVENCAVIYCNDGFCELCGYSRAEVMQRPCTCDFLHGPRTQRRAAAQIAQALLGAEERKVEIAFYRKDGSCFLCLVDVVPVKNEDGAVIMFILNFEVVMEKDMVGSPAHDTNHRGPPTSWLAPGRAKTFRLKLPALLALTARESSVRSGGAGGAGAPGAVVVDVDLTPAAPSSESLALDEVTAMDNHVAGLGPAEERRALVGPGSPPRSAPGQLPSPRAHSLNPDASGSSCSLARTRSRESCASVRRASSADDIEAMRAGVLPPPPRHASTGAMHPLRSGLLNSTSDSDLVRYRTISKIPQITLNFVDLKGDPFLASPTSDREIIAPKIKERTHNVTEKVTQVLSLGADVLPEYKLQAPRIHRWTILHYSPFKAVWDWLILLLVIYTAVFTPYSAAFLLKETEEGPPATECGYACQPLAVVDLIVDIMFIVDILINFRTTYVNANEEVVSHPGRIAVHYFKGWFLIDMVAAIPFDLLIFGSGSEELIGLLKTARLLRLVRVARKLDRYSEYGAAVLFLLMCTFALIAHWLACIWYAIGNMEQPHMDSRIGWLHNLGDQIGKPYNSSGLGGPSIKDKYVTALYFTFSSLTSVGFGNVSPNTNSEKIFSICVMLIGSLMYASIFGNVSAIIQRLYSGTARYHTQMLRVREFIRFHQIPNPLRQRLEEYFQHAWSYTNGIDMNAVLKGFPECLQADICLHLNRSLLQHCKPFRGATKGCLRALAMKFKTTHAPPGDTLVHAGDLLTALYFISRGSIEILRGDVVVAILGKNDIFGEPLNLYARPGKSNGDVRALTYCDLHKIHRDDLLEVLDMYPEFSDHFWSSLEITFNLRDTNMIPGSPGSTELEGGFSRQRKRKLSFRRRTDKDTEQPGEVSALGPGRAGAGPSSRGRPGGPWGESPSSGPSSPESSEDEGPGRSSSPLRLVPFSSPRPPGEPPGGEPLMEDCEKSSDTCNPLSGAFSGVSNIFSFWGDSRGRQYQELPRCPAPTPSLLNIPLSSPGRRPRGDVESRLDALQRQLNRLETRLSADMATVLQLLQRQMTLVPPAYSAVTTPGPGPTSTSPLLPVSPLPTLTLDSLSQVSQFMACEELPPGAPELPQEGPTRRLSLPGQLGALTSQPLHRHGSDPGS
row,SMILES,"hERG current change (%, negative = inhibition) at 10uM [%]"
1,CCOc1ccc(-n2c(SCC(=O)Nc3ccccc3C)n[nH]c2=O)cc1,11.9
2,CCOC(=O)c1c(O)c2cc(Cl)ccc2n(CC)c1=O,10.4
3,C=CCn1c(O)c(CN2CCCCC2)c(C)c(C#N)c1=O,25.4
4,CC(NC(=O)C1CCCCC1)C(=O)NC1=NCCS1 (stereo not drawn),-7.06
5,CCCC(=O)NC(c1ccco1)c1cc([N+](=O)[O-])c2cccnc2c1O (stereo not drawn),6.41
6,CC(C)(C)C1CCc2c(sc(NC(=O)CSc3ncn[nH]3)c2C#N)C1 (stereo not drawn),5.74
7,CCc1ccc(CN(C)C(=O)CCc2nc3ccccc3n(-c3ccc(OC)cc3)c2=O)cc1,-0.36
8,COc1cccc(-n2nc(C(C)=O)c(C#N)c2-c2ccco2)c1,23.5
9,COc1ccccc1CNS(=O)(=O)c1c(C(=O)N2CCCCC2)c(C)n(C)c1C,5.51
10,Cc1ccc(C)c(S(=O)(=O)NCCCc2ccccc2)c1,-1.65
11,C=CCn1c(SCC(=O)OCc2ccccc2)nc2c1c(=O)n(C)c(=O)n2C,-14.4
12,Cc1cc(OCC(=O)NCC(O)c2ccccc2)c2c(C)c(C)c(=O)oc2c1 (stereo not drawn),-7.25
13,COc1ccc(/C=C2\Oc3cc(OC(=O)N4CCOCC4)ccc3C2=O)cc1,-1.63
14,c1ccc(-c2nc(-c3ccncc3)no2)cc1,11.8
15,O=C(N/N=C/c1ccccc1F)NC1CCCCC1,-18.5
16,C=CCc1c(O)nc(SCC(=O)c2ccccc2)[nH]c1=O,2.79
17,CC(C)Cc1ccc(CN2CCCC(NC(=O)CCN3CCOCC3)C2)cc1 (stereo not drawn),-37.4
18,Cc1ccc(NC(=Nc2ccc(Br)cc2)N2CCOCC2)cc1C,-63.8
19,Cc1ccc(NC(=O)c2ccc(NCCCN3CCOCC3)c([N+](=O)[O-])c2)cc1Cl,-10.7
20,Clc1cccc(C2NCCc3[nH]cnc32)c1 (stereo not drawn),-5.5
21,COc1cccc(/C=C/C(=O)OCC(=O)NCC2CCCO2)c1 (stereo not drawn),12.7

row,SMILES,"hERG current change (%, negative = inhibition) at 10uM [%]"
1,O=C(CN1CCOCC1)Nc1c(C(=O)C2CC2)oc2ccccc12,-6.8
2,CCOc1ccc2nc(N(CCCN(C)C)C(=O)c3ccc(C(=O)c4ccccc4)cc3)sc2c1.Cl,-35.5
3,CCc1ccccc1Nc1nc2ccccc2n1CC,22.9
4,Cn1c(=O)[nH]c(=O)c2c1nc(CN1CCN(Cc3ccccc3)CC1)n2CC(N)=O,7.32
5,COC(=O)c1c(NC(=O)c2ccoc2C)sc2c1CCC2,-2.01
6,CC(=O)c1ccc(N(C(=O)CNC(=O)c2ccco2)C(C(=O)NC2CCCC2)c2ccc(C)o2)cc1 (stereo not drawn),-8.48
7,O=c1cc(O)c2c(=O)n(C3CCCCC3)c3ccccc3c2o1,4.96
8,CCN1C(=O)/C(=C/C=C2/CCCN2C)OC1=S,-10.4
9,Nc1cc2ccncc2c2ccccc12,4.19
10,CC(C)/C(=N/Nc1ccccc1[N+](=O)[O-])c1ccccc1,29.9
11,CCOC(=O)C1=NOC(CN(c2ccccc2)S(=O)(=O)c2ccc(Cl)cc2)C1 (stereo not drawn),-22.8
12,CCc1ccc(NC(=O)c2n[nH]c(=O)c3ccccc23)cc1,7.89
13,COc1ccc(O)c(/C=N/N2CCOCC2)c1,14.1
14,CN(CCOc1ccc(C=C2C(=O)NC(=O)NC2=O)cc1)c1ccccn1,17.2
15,Cc1cc(S(=O)(=O)Nc2c(C(=O)O)[nH]c3ccccc23)ccc1F,0.616
16,CCc1cc(C(=O)N(CC)CC(=O)Nc2ccc(OC)cc2)sc1C,-5.52
17,CCCN1CCN(CCCNC(=S)Nc2ccc(F)cc2)CC1,-13
18,Cn1c(CSCc2ccc(Cl)cc2)nnc1SCC(=O)Nc1nc2ccccc2s1,9.45
19,COC(=O)c1ccccc1NC(=O)c1cccc(NC(=O)C(C)C)c1,6.41
20,CC(Sc1nnc(C2CC2)n1C1CC1)C(=O)NC1(C#N)CCCCC1 (stereo not drawn),-10.2
21,CCCC(=O)Nc1cc(C(=O)O)ccc1S(=O)(=O)c1ccc(C)cc1,11.6
